Measurements reported in a collection of fitness landscapes (doi:10.1016/j.celrep.2020.107928).
Over roughly 81,000 sequences, “one-hybrid fitness for binding parS DNA” has its median near -0.17; the highest 2% begin near 0.51. This is one part of the list.

B1: Caulobacter ParB omega fusion; a variant is named by its letters at X, in order, B8GW30 (parent)
chain: MESVVVGEPGMSEGRRGLGRGLSALLGEVDAAPAQAPGEQLGGSREAPIEILQRNPDQPRRTFREEDLEDLSNSIREKGVLQPILVRPSPDTAGEYQIVAGERAWRAAQRAGLKTVPIMVRELDDLAVLEIGIIENVQRADLNVLEEALSYKVLMEKFERTQENIAQTIGKSXSHVANXMRLLXLPDEVQSYLVSGELTAXHARAIAAAADPVALAKQIIEGGLSVRETEALARKAPNLSAGKSKGGRPPRVKDTDTQALESDLSSVLGLDVSIDHRGSTGTLTITYATLEQLDDLCNRLTRGI

Variants of: B1
Assay: one-hybrid fitness for binding parS DNA (scaled: cognate 1, non-cognate 0); higher = stronger binding
Details: with parS DNA site
Summary of the method: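 Pre- and post-selection plasmids were Illumina-sequenced, three replicate libraries were pooled, and any variant with under 10 reads was removed. The libraries were Caulobacter ParB with four specificity codons randomised, selected in E. coli USO through a HIS3 reporter whose site is 19 bp from the promoter. Cells grew 48 hours at 37°C on M9 without histidine, with 0.1 mM IPTG and 5 mM 3-AT. Fitness is the log change in variant-to-wild-type read ratio, rescaled against cognate and non-cognate.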

Variant | one-hybrid fitness for binding parS DNA
NRDH | ≤ 0.2
LLLD | ≤ 0.2
AEGG | ≤ 0.2
PCPL | ≤ 0.2
GCVG | ≤ 0.2
LYHW | ≤ 0.2
NGPQ | ≤ 0.2
VGIC | ≤ 0.2
RRRW | ≤ 0.2
TYPR | ≤ 0.2
DHKA | ≤ 0.2
PLAA | ≤ 0.2
VWSH | ≤ 0.2
LTPA | ≤ 0.2
KREL | ≤ 0.2
ILQT | ≤ 0.2
SLLM | ≤ 0.2
DRTF | ≤ 0.2
VLHW | ≤ 0.2
HYRC | ≤ 0.2
GFCG | ≤ 0.2
DMLT | ≤ 0.2
KGTY | ≤ 0.2
SACC | ≤ 0.2

Variant | one-hybrid fitness for binding parS DNA
NVIK | ≤ 0.2
NSHE | ≤ 0.2
WCTC | ≤ 0.2
DAEC | ≤ 0.2
RNPR | ≤ 0.2
CCVT | ≤ 0.2
STKV | ≤ 0.2
KTAC | ≤ 0.2
PHEA | ≤ 0.2
HSSL | ≤ 0.2
SMAE | ≤ 0.2
DNYL | ≤ 0.2
RACF | 0.228
MRTA | ≤ 0.2
KVRC | ≤ 0.2
EDAG | ≤ 0.2
WVDT | ≤ 0.2
HDTF | ≤ 0.2
NSNS | ≤ 0.2
LIKQ | ≤ 0.2
TKAT | ≤ 0.2
CCRT | ≤ 0.2
WHNG | ≤ 0.2
DPSR | ≤ 0.2

Variant | one-hybrid fitness for binding parS DNA
QCNE | ≤ 0.2
RKPD | ≤ 0.2
GQNC | ≤ 0.2
PENT | ≤ 0.2
HKRE | ≤ 0.2
RTYY | 0.49
MTPF | ≤ 0.2
MCRT | ≤ 0.2
ARTD | ≤ 0.2
QNLV | ≤ 0.2
QWLG | ≤ 0.2
TIAR | ≤ 0.2
RECG | 0.221
MCGT | ≤ 0.2
VMVT | ≤ 0.2
RFKK | ≤ 0.2
WWNC | ≤ 0.2
YHPF | ≤ 0.2
NPHC | ≤ 0.2
WHKV | ≤ 0.2
DGQS | ≤ 0.2
GTQK | ≤ 0.2
GSNR | ≤ 0.2
LCIF | ≤ 0.2

Variant | one-hybrid fitness for binding parS DNA
RYYA | 0.522
KKGK | ≤ 0.2
RWQT | 0.618
RQES | 0.962
RLGM | 0.352
HMGI | ≤ 0.2
VIYC | ≤ 0.2
PKQC | ≤ 0.2
KLVK | ≤ 0.2
SRRK | ≤ 0.2
NVLA | ≤ 0.2
GTLE | ≤ 0.2
NLAG | ≤ 0.2
LPSA | ≤ 0.2
QMDD | ≤ 0.2
DRTQ | ≤ 0.2
YKPS | ≤ 0.2
MACK | ≤ 0.2
RLRV | ≤ 0.2
SWEE | ≤ 0.2
PWIM | ≤ 0.2
GAYF | ≤ 0.2
VADV | ≤ 0.2
RENC | 0.27

Variant | one-hybrid fitness for binding parS DNA
RKLF | ≤ 0.2
PSYV | ≤ 0.2
HFSG | ≤ 0.2
PEQC | ≤ 0.2
CNGC | ≤ 0.2
QGPT | ≤ 0.2
VYET | ≤ 0.2
RSQF | 0.218
TTQY | ≤ 0.2
LSRG | ≤ 0.2
QTRN | ≤ 0.2
VLEN | ≤ 0.2
IRRG | ≤ 0.2
CVNG | ≤ 0.2
GYPR | ≤ 0.2
YSQT | ≤ 0.2
GVCG | ≤ 0.2
TNHE | ≤ 0.2
RGYG | 0.576
HCHR | ≤ 0.2
SDVA | ≤ 0.2
GKYW | ≤ 0.2
DQIF | ≤ 0.2
QKSR | ≤ 0.2

Variant | one-hybrid fitness for binding parS DNA
SIYG | ≤ 0.2
EEPL | ≤ 0.2
NHRV | ≤ 0.2
DSFR | ≤ 0.2
LCCW | ≤ 0.2
RQCD | ≤ 0.2
GQCS | ≤ 0.2
QSMQ | ≤ 0.2
ILWC | ≤ 0.2
APQD | ≤ 0.2
RTWT | 0.916
WFVG | ≤ 0.2
DPCI | ≤ 0.2
LRCG | ≤ 0.2
TSEG | ≤ 0.2
ITTD | ≤ 0.2
FHYG | ≤ 0.2
TQDN | ≤ 0.2
AHKA | ≤ 0.2
PKKG | ≤ 0.2
VFAS | ≤ 0.2
NGFG | ≤ 0.2
QKKL | ≤ 0.2
PNIN | ≤ 0.2

Variant | one-hybrid fitness for binding parS DNA
RNDV | ≤ 0.2
RPCY | ≤ 0.2
SKVL | ≤ 0.2
AKKC | ≤ 0.2
REVF | ≤ 0.2
RTDL | ≤ 0.2
NQPN | ≤ 0.2
MEKA | ≤ 0.2
ASDN | ≤ 0.2
LNWS | ≤ 0.2
QRRA | ≤ 0.2
DMFG | ≤ 0.2
DLKS | ≤ 0.2
ARTC | ≤ 0.2
TSFC | ≤ 0.2
RPGV | ≤ 0.2
SICG | ≤ 0.2
IEIS | ≤ 0.2
MIYT | ≤ 0.2
YLDY | ≤ 0.2
HNVA | ≤ 0.2
QLRH | ≤ 0.2
SRYQ | ≤ 0.2
HQNF | ≤ 0.2

Variant | one-hybrid fitness for binding parS DNA
QRNW | ≤ 0.2
IDNY | ≤ 0.2
TYLC | ≤ 0.2
RLHL | ≤ 0.2
RGCQ | ≤ 0.2
EMQL | ≤ 0.2
CQNL | ≤ 0.2
MQYS | ≤ 0.2
PAKH | ≤ 0.2
SWNC | ≤ 0.2
QMKQ | ≤ 0.2
MDDS | ≤ 0.2
QKPM | ≤ 0.2
GQGY | ≤ 0.2
ECIL | ≤ 0.2
NNSS | ≤ 0.2
IPAS | ≤ 0.2
RSWC | 0.847
EGSL | ≤ 0.2
SNMY | ≤ 0.2
DLVA | ≤ 0.2
ANLF | ≤ 0.2
SEMD | ≤ 0.2
PPKR | ≤ 0.2

Variant | one-hybrid fitness for binding parS DNA
LVNA | ≤ 0.2
GTQF | ≤ 0.2
QQLG | ≤ 0.2
IQCC | ≤ 0.2
HHAM | ≤ 0.2
NQNL | ≤ 0.2
ALCT | ≤ 0.2
HVNC | ≤ 0.2
WADV | ≤ 0.2
LHSC | ≤ 0.2
DNKF | ≤ 0.2
CLQW | ≤ 0.2
RVYK | ≤ 0.2
AHCL | ≤ 0.2
PSHQ | ≤ 0.2
ECAY | ≤ 0.2
WRIG | ≤ 0.2
LNTM | ≤ 0.2
SGVL | ≤ 0.2
PKMM | ≤ 0.2
EPAG | ≤ 0.2
QKGV | ≤ 0.2
WESY | ≤ 0.2
LDAA | ≤ 0.2

Variant | one-hybrid fitness for binding parS DNA
CLLD | ≤ 0.2
LPEA | ≤ 0.2
MRRE | ≤ 0.2
VRQT | ≤ 0.2
ASAK | ≤ 0.2
RVNC | 0.947
SVCE | ≤ 0.2
ENPQ | ≤ 0.2
QIFV | ≤ 0.2
EPGI | ≤ 0.2
VPLI | ≤ 0.2
PGNP | ≤ 0.2
SMRF | ≤ 0.2
IHKY | ≤ 0.2
PPCE | ≤ 0.2
HYQS | ≤ 0.2
VEMR | ≤ 0.2
RQPV | ≤ 0.2
AHSN | ≤ 0.2
VDCA | ≤ 0.2
QEGF | ≤ 0.2
RTEI | ≤ 0.2
EVMS | ≤ 0.2
ANRP | ≤ 0.2

Variant | one-hybrid fitness for binding parS DNA
NHGT | ≤ 0.2
MSAR | ≤ 0.2
SEGR | ≤ 0.2
LRKK | ≤ 0.2
RYWC | 0.887
QSGA | ≤ 0.2
VNRD | ≤ 0.2
PAMV | ≤ 0.2
PWMW | ≤ 0.2
VTRH | ≤ 0.2
QLED | ≤ 0.2
MYPM | ≤ 0.2
DDTR | ≤ 0.2
FVPC | ≤ 0.2
CGYS | ≤ 0.2
DPAK | ≤ 0.2
FAGD | ≤ 0.2
VNQW | ≤ 0.2
DPQT | ≤ 0.2
PAGW | ≤ 0.2
SDNE | ≤ 0.2
ALTV | ≤ 0.2
RLLC | 1
PWRN | ≤ 0.2

Variant | one-hybrid fitness for binding parS DNA
AVSK | ≤ 0.2
LFWP | ≤ 0.2
AVQS | ≤ 0.2
RDTS | ≤ 0.2
HPSI | ≤ 0.2
NNSV | ≤ 0.2
MVLK | ≤ 0.2
PWKW | ≤ 0.2
KRYT | ≤ 0.2
FLER | ≤ 0.2
NWKW | ≤ 0.2
LTAW | ≤ 0.2
RPLM | ≤ 0.2
DTNV | ≤ 0.2
TAQC | ≤ 0.2
TSIE | ≤ 0.2
TSHA | ≤ 0.2
DALC | ≤ 0.2
FETG | ≤ 0.2
QGRN | ≤ 0.2
VVIM | ≤ 0.2
ARMP | ≤ 0.2
HLTF | ≤ 0.2
GNTC | ≤ 0.2

Variant | one-hybrid fitness for binding parS DNA
ARTN | ≤ 0.2
KAVS | ≤ 0.2
PVNA | ≤ 0.2
RKCA | 0.503
RPCM | ≤ 0.2
WFRM | ≤ 0.2
LWSW | ≤ 0.2
PLKD | ≤ 0.2
QRVA | ≤ 0.2
NRLL | ≤ 0.2
MLKT | ≤ 0.2
PAYD | ≤ 0.2
YVYL | ≤ 0.2
DIRL | ≤ 0.2
MRPD | ≤ 0.2
KPLR | ≤ 0.2
MQNK | ≤ 0.2
TYNR | ≤ 0.2
